The full ranking holds about 33,000 sequences; the median of “E-score (-0.5 to 0.5)” is about -0.054, and the highest 2% start at about 0.35. The list shows a part of the results.
Target: T1, Stb5 (UniProt P38699)
T1 sequence: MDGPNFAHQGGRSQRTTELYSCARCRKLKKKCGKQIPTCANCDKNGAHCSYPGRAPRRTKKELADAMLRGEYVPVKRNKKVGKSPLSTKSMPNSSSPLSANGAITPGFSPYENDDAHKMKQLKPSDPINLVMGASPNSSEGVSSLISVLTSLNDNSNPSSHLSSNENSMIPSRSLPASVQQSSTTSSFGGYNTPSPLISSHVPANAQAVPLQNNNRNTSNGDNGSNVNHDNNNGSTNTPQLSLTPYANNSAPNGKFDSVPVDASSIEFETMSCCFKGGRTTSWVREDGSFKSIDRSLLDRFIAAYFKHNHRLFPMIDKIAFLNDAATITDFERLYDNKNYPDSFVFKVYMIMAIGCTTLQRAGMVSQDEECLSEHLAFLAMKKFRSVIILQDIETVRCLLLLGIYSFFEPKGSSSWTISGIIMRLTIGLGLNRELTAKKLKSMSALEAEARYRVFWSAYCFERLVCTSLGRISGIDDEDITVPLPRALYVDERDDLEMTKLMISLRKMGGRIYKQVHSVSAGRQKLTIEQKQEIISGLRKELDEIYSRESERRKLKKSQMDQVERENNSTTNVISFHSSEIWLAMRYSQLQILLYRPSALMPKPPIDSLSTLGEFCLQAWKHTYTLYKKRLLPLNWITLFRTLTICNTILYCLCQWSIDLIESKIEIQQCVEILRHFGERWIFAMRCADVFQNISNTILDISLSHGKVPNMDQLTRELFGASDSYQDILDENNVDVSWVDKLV
Assay: PBM E-score (8-mer binding enrichment) (E-score (-0.5 to 0.5)); higher = stronger / more preferred TF binding; most listed sequences are background and not binding sites
Settings: protein concentration: 200 nM; construct: GST-full length
Method in brief: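 Bound GST-tagged yeast transcription factors, applied at about 100-200 nM to double-stranded universal all-10-mer Agilent arrays, were detected with fluorescent anti-GST. Scans were normalised with masliner. A modified Wilcoxon-Mann-Whitney statistic, the E-score, was assigned to each ungapped eight-base word pooled with its reverse complement by the Universal PBM Analysis Suite.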

Sequence | PBM E-score
CGCGTATA | 0.0871
AGGGGCAC | -0.238
GTCCGAAC | 0.283
CACAAACG | 0.124
CCGTGGAC | 0.222
CGGGATAA | 0.22
AGTTCAGG | -0.0729
AGTGGACA | -0.0574
ATCTAGCG | -0.0929
CCTTTGGC | -0.232
CGAATTTC | -0.0899
CACTAGAA | -0.0294
CACCTCCG | 0.182
ACCTAAGG | -0.204
ATGGGATG | -0.069
CTGGCACA | -0.364
ATTTTCGC | 0.162
GCGTAGTA | -0.0643
AATAGCAC | 0.17
CAAATGAC | -0.143
GCCAGGCC | -0.0319
AACTCAAC | -0.0587
GTCATCAA | -0.122
AAGCGAGA | -0.111
ACCTCGGA | 0.174

Sequence | PBM E-score
GACCCGGC | 0.179
GCGGCACA | 0.173
GGTTCGGA | 0.234
CACGTTGA | -0.235
TCTACAGA | 0.0295
ATGAGCGA | -0.0585
AGCAAACG | -0.0464
GTTTAGCA | 0.0785
ATTTAACC | 0.25
AACGTCAT | -0.0687
AGTTAGGC | -0.144
AGCATCAA | -0.209
ACGTCCGG | 0.244
GGGCTTTA | 0.326
CACTTGTC | 0.0179
ACGCTGAA | -0.102
GCGCCTCC | -0.0611
TAACTCCA | 0.182
CTAGCCGA | -0.0323
CTTATGGC | -0.0192
GTCCAACA | -0.0985
AAGACCGT | 0.382
AGTCCCGA | 0.342
CTCGCTGC | -0.0749
CTTCACAC | -0.0447

Sequence | PBM E-score
ATAGTAGG | 0.0158
AGGTTCAA | -0.0479
GGGCGGAC | 0.408
TACCTAAA | 0.029
CTGTGCGC | -0.0199
ATAACTGA | -0.0343
TGGCACAA | -0.295
GTTGAAAC | 0.112
GAGTAATA | 0.0626
ACATTACT | -0.131
CCATTAAC | -0.181
AGACTCTC | -0.197
TCGTGGAA | 0.00034
CGAGATTA | 0.0972
AAGAAGCC | 0.0812
CTCCGGGA | 0.267
AGATGCGA | 0.0797
CCAAGAGA | -0.246
CATCTGCG | -0.0145
CGTTTTGA | -0.0622
AGTTGAAA | 0.215
ATATGTGA | -0.172
CCCTCTCC | -0.338
CCGACAAG | 0.266
CCAGTGGA | -0.326

Sequence | PBM E-score
ACGGTGAT | 0.367
AGCAACAA | 0.033
CAACGCGC | -0.0988
AATATCTC | 0.251
ACAGAGCA | -0.102
ACTCATTA | -0.104
GTCCTCGA | -0.265
ATATTGCG | 0.16
GAACTGAC | -0.12
CTGGTCTC | -0.359
ACCCATTG | -0.196
ACGTTGCC | -0.204
GCAACCAC | -0.0592
AGTTGGAG | -0.0719
CCACTAAA | -0.12
ACAACGCA | -0.159
AATACCCC | 0.304
ATTTGATC | 0.0711
CGCCTCAG | -0.0198
CCTAGAAC | -0.00851
ATGGAATA | 0.0263
AAAACCAG | -0.14
CCTATCTA | -0.116
ATCCGTCG | 0.219
TAATCCCA | 0.159

Sequence | PBM E-score
GATTGGAC | -0.051
CAGGCGGA | 0.271
GTCACTCA | -0.124
TAAAGAGA | -0.0758
GCAATCTA | -0.0252
ACTGCGTG | -0.174
CAGCGATC | 0.0622
TGATAACA | -0.0628
GCAGCTCA | -0.277
CCACCTGA | -0.124
ACGGCCTG | 0.147
GGAACGCC | 0.119
AAAATCAA | -0.0562
AGTTCGGA | 0.208
TGTCTTAA | 0.00631
ATCACTAC | -0.315
ATTTGCAA | -0.15
ACAGAGAT | -0.135
CACGCACG | 0.0155
ATTTTGCC | 0.0618
ATTGGGTG | -0.0939
TGCAGTAA | -0.112
ACCGTGGG | 0.107
CATCGTGG | -0.0422
ACTAGGCA | 0.0431

Sequence | PBM E-score
GTCCGGAA | 0.192
AGGTCGCA | 0.0143
GTTTCAAA | 0.0831
AGGAGGGA | -0.215
AGATAAAT | -0.0468
GACACCAC | 0.0001
AATGTAGC | -0.23
ACATACTC | -0.212
ACGGCAGC | 0.0597
CGTAGTGA | -0.13
TATCCTCA | -0.159
AGGCAACT | -0.147
AACGAAAT | 0.0462
AAGGGACC | -0.00597
ACGGTAAG | 0.102
GCGGGTAC | 0.102
CAACCGAA | -0.045
ACAACACA | -0.294
AGAATGGC | -0.129
ACAGCCAT | -0.306
AATGGGGG | -0.124
AGTTCGAT | -0.239
AAGAAAGC | -0.112
AACTCCGT | 0.444
CGGCTACC | 0.041

Sequence | PBM E-score
AATGCGTC | -0.154
CAGAGTAA | -0.179
ACGGGAAG | -0.0191
GTTCCTTA | -0.173
CAGAGATA | -0.148
CTGGCTCC | -0.188
AGAGCCTC | -0.258
TCATCGCA | -0.185
ACTAGCCC | 0.15
AGAGGCAG | -0.38
AGCACGTG | -0.251
AGGGAGTG | -0.196
AATAGTGA | -0.197
CCTCATAG | -0.261
AACTGTAT | -0.0898
GCTAGTAC | -0.109
CCAGGAAG | -0.203
TATAAATA | 0.15
GGGTTTAC | 0.274
ATACGCCG | 0.338
ATACCTAA | -0.105
AGCGAGTA | -0.13

From the supplement of paper PMC3334620
